Reference: the supplement of paper PMC8948288
Shown are siRNA guide strands that differ only in the seed, positions 2 to 7.

Assays:
GL261 = experiment: cell viability relative to siNT1 (ATP content); H4 human neuroglioma and GL261 mouse glioma; higher = less toxic; settings: siRNA concentration 25 nM; 96 h; mouse
H4 = experiment: as above; settings: siRNA concentration 10 nM; 96 h; human
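Further: cells reverse transfected with siRNA duplexes via lipid reagent, ATP read by luminescence, triplicate wells, values scaled to mean viability with non-targeting control siNT1.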

Sequence	cell viability (GL261)	cell viability (H4)
UUUAUACACAUGUAAACCA	54.8%	76.6%
UUUAUAGACAUGUAAACCA	83.5%	91.5%
UUUAUAUACAUGUAAACCA	61%	106%
UUUAUCAACAUGUAAACCA	68.7%	86%
UUUAUCCACAUGUAAACCA	23.3%	70.1%
UUUAUCGACAUGUAAACCA	71.7%	86.4%
UUUAUCUACAUGUAAACCA	34.6%	102%
UUUAUGAACAUGUAAACCA	61.8%	114%
UUUAUGCACAUGUAAACCA	16.7%	19.8%
UUUAUGGACAUGUAAACCA	38.7%	82.8%
UUUAUGUACAUGUAAACCA	21.5%	83.1%
UUUAUUAACAUGUAAACCA	55.4%	105%
UUUAUUCACAUGUAAACCA	27.6%	97.2%
UUUAUUGACAUGUAAACCA	64.9%	105%
UUUAUUUACAUGUAAACCA	55.3%	77.2%
UUUCAAAACAUGUAAACCA	44.1%	95.6%
UUUCAACACAUGUAAACCA	35.7%	88.1%
UUUCAAGACAUGUAAACCA	40.6%	97.8%
UUUCAAUACAUGUAAACCA	47.4%	98.3%
UUUCACAACAUGUAAACCA	22.1%	100%
UUUCACCACAUGUAAACCA	26.8%	27%
UUUCACGACAUGUAAACCA	31.3%	104%

Sequence	cell viability (GL261)	cell viability (H4)
UUUCACUACAUGUAAACCA	17.2%	65.8%
UUUCAGAACAUGUAAACCA	43.4%	97.2%
UUUCAGCACAUGUAAACCA	11.6%	69.9%
UUUCAGGACAUGUAAACCA	18%	72.8%
UUUCAGUACAUGUAAACCA	20.1%	77.9%
UUUCAUAACAUGUAAACCA	31.3%	82.6%
UUUCAUCACAUGUAAACCA	42.2%	70.7%
UUUCAUGACAUGUAAACCA	47.2%	87.6%
UUUCAUUACAUGUAAACCA	32.8%	87.1%
UUUCCAAACAUGUAAACCA	55.9%	79.7%
UUUCCACACAUGUAAACCA	23.9%	73.3%
UUUCCAGACAUGUAAACCA	53.3%	70.3%
UUUCCAUACAUGUAAACCA	44.8%	86.3%
UUUCCCAACAUGUAAACCA	55%	86.5%
UUUCCCCACAUGUAAACCA	21.4%	46.2%
UUUCCCGACAUGUAAACCA	56.1%	84.4%
UUUCCCUACAUGUAAACCA	52.6%	75.3%
UUUCCGAACAUGUAAACCA	61.2%	100%
UUUCCGCACAUGUAAACCA	17.6%	49.6%
UUUCCGGACAUGUAAACCA	36%	74.7%
UUUCCGUACAUGUAAACCA	17.4%	87.8%
UUUCCUAACAUGUAAACCA	60.1%	95.4%

Sequence	cell viability (GL261)	cell viability (H4)
UUUCCUCACAUGUAAACCA	16.2%	26.2%
UUUCCUGACAUGUAAACCA	31.4%	103%
UUUCCUUACAUGUAAACCA	33.6%	71.4%
UUUCGAAACAUGUAAACCA	51.3%	99.3%
UUUCGACACAUGUAAACCA	50.2%	82.3%
UUUCGAGACAUGUAAACCA	47%	96.1%
UUUCGAUACAUGUAAACCA	55.1%	98.5%
UUUCGCAACAUGUAAACCA	44.2%	95.5%
UUUCGCCACAUGUAAACCA	38.4%	89.6%
UUUCGCGACAUGUAAACCA	56.7%	95.1%
UUUCGCUACAUGUAAACCA	14.9%	93.4%
UUUCGGAACAUGUAAACCA	46.2%	89.8%
UUUCGGCACAUGUAAACCA	18.4%	43.7%
UUUCGGGACAUGUAAACCA	44%	90.3%
UUUCGGUACAUGUAAACCA	41.9%	75%
UUUCGUAACAUGUAAACCA	42.5%	95.1%
UUUCGUCACAUGUAAACCA	46%	89.4%
UUUCGUGACAUGUAAACCA	54.4%	97.3%
UUUCGUUACAUGUAAACCA	55.7%	90.8%
UUUCUAAACAUGUAAACCA	58.2%	90.2%
UUUCUACACAUGUAAACCA	22.2%	77.4%
UUUCUAGACAUGUAAACCA	51.9%	108%

Sequence	cell viability (GL261)	cell viability (H4)
UUUCUAUACAUGUAAACCA	54.5%	79.2%
UUUCUCAACAUGUAAACCA	38.9%	87.8%
UUUCUCCACAUGUAAACCA	11.9%	25.9%
UUUCUCGACAUGUAAACCA	25.2%	82.6%
UUUCUCUACAUGUAAACCA	15.5%	57.1%
UUUCUGAACAUGUAAACCA	39.3%	87.6%
UUUCUGCACAUGUAAACCA	6.94%	27%
UUUCUGGACAUGUAAACCA	9.72%	36.6%
UUUCUGUACAUGUAAACCA	8.83%	64.9%
UUUCUUAACAUGUAAACCA	43.7%	95%
UUUCUUCACAUGUAAACCA	17.6%	60.2%
UUUCUUGACAUGUAAACCA	43.1%	87.1%
UUUCUUUACAUGUAAACCA	28.8%	71%
UUUGAAAACAUGUAAACCA	53.1%	103%
UUUGAACACAUGUAAACCA	53.2%	93.2%
UUUGAAGACAUGUAAACCA	53.9%	102%
UUUGAAUACAUGUAAACCA	41.7%	96.4%
UUUGACAACAUGUAAACCA	42.6%	86.7%
UUUGACCACAUGUAAACCA	27.6%	47.6%
UUUGACGACAUGUAAACCA	52.6%	92%
